Measurements as given in patent publication US5196546A, “Selective pyrazoline insecticides and fungicides” (priority 1990, dated 1993).
The name of at least one read-out is uncertain.

Legend:
Assay type in all cases: in vivo
Aphis fabae = experiment: Aphicidal test, foliar-sprayed nasturtium (Aphis fabae, bean aphid), mortality after 48 hours; conditions: 500 ppm AI, 48 hours exposure, foliar spray; ranking 0-4
Musca Domestica = experiment: Insecticidal test, house fly (Musca domestica), direct spray; conditions: 500 ppm AI, 48 hours exposure, ranking 0-4
[1] = system: wheat leaf rust (Puccinia recondita); experiment: Control of foliar pathogens: wheat leaf rust; conditions: 500 ppm AI, final readout at 100% leaf infection in control, ranking 0-4

Row | Compound | Aphid (% control ranking) (Aphis fabae) | Fly (% control ranking) (Musca Domestica) | Rust (percentage disease control ranking) [1]
1 | Cc1ccc(N2CC(C)(CO)C(OC(=O)N(C)C)=N2)cc1 (stereo not drawn) [Example 6, 3-(N,N-dimethylcarbamoyloxy)-4-hydroxymethyl-4-methyl-1-(4-tolyl)-2-pyrazoline] | 4 (80-100 % Control) | 0 (0-9 % Control) | 2 (30-49 % Control)
2 | CN(C)C(=O)OC1=NN(c2ccccc2Br)CC1(C)C [Example 23, 1-(2-bromophenyl)-4,4-dimethyl-3-(N,N-dimethylcarbamoyloxy)-2-pyrazoline] | 4 (80-100 % Control) | 0 (0-9 % Control) | 0 (0-9 % Control)
3 | CCCCC1(C)CN(c2ccc(C)cc2)N=C1OC(=O)N(C)C (stereo not drawn) [Example 26, 4-n-butyl-3-(N,N-dimethylcarbamoyloxy)-4-methyl-1-(4-tolyl)-2-pyrazoline] | 4 (80-100 % Control) | 0 (0-9 % Control) | 0 (0-9 % Control)
4 | CN(C)C(=O)OCC1(C)CN(c2ccccc2)N=C1OC(=O)N(C)C (stereo not drawn) [Example 13] | 2 (30-49 % Control) | 0 (0-9 % Control) | 0 (0-9 % Control)
5 | COc1ccc(N2CCC(OC(=O)N(C)c3ccccc3)=N2)cc1 [Example 10] | 1 (10-29 % Control) | 3 (50-79 % Control) | 4 (80-100 % Control)
6 | Cc1ccc(N2CC(C)(C)C(OC(=O)N(C)C)=N2)cc1 [Example 12] | 4 (80-100 % Control) | 2 (30-49 % Control) | 0 (0-9 % Control)
7 | CN(C)C(=O)OC1=NN(c2ccc(S(C)(=O)=O)cc2)CC1(C)C [Example 34, 4,4-dimethyl-3-(N,N-dimethylcarbamoyloxy)-1-(4-methylsulfonylphenyl)-2-pyrazoline] | 4 (80-100 % Control) | 4 (80-100 % Control) | 0 (0-9 % Control)
8 | C=CCN1CC(C)(C)C(OC(=O)N(C)C)=N1 [Example 16, 1-allyl-4,4-dimethyl-3-(N,N-dimethylcarbamoyloxy)-2-pyrazoline] | 4 (80-100 % Control) | – | –
9 | CN(C)C(=O)OC1=NN(c2c(Cl)cc(Cl)cc2Cl)CC1(C)C [Example 37] | 4 (80-100 % Control) | 1 (10-29 % Control) | 0 (0-9 % Control)
10 | CN(C)C(=O)OC1=NN(c2cccc(F)c2)CC1(C)C [Example 35, 4,4-dimethyl-1-(3-fluorophenyl)-3-(N,N-dimethylcarbamoyloxy)-2-pyrazoline] | 3 (50-79 % Control) | 3 (50-79 % Control) | 0 (0-9 % Control)
11 | CN(C)C(=O)OC1=NN(c2ccccc2)CC1(C)C [Example 1, 4,4-dimethyl-3-(N,N-dimethylcarbamoyloxy)-1-phenyl-2-pyrazoline] | 4 (80-100 % Control) | 4 (80-100 % Control) | 0 (0-9 % Control)
12 | CN(C)C(=O)OC1=NN(Cc2ccc(F)cc2)CC1(C)C [Example 19, 1-(4-fluorobenzyl)-4,4-dimethyl-3-(N,N-dimethylcarbamoyloxy)-2-pyrazoline] | 4 (80-100 % Control) | – | –
13 | Cc1ccc(N2CC(C)(COC(=O)N(C)C)C(OC(=O)N(C)C)=N2)cc1 (stereo not drawn) [Example 14, 4-(N,N-dimethylcarbamoyloxymethyl)-3-(N,N-dimethylcarbamoyloxy)-4-methyl-1-(4-tolyl)-2-pyrazoline] | 4 (80-100 % Control) | 3 (50-79 % Control) | 0 (0-9 % Control)
14 | Cc1ccc(N2CC(C)(C(C)(C)O)C(OC(=O)N(C)C)=N2)cc1 (stereo not drawn) [Example 22, 4-(2-hydroxyisopropyl)-3-(N,N-dimethylcarbamoyloxy)-4-methyl-1-(4-tolyl)-2-pyrazoline] | 4 (80-100 % Control) | 0 (0-9 % Control) | 0 (0-9 % Control)
15 | CN(C)C(=O)OC1=NN(c2ccccc2F)CC1(C)C [Example 33, 1-(2-fluorophenyl)-4,4-dimethyl-3-(N,N-dimethylcarbamoyloxy)-2-pyrazoline] | 4 (80-100 % Control) | 3 (50-79 % Control) | 0 (0-9 % Control)
16 | Cc1ccccc1N1CC(C)(C)C(OC(=O)N(C)C)=N1 [Example 25, 4,4-dimethyl-3-(N,N-dimethylcarbamoyloxy)-1-(2-tolyl)-2-pyrazoline] | 4 (80-100 % Control) | 1 (10-29 % Control) | 0 (0-9 % Control)
17 | CN(C)C(=O)OC1=NN(c2ccccc2)CC1(C)CCO (stereo not drawn) [Example 30, 4-(2-hydroxyethyl)-3-(N,N-dimethylcarbamoyloxy)-4-methyl-1-phenyl-2-pyrazoline] | 4 (80-100 % Control) | 0 (0-9 % Control) | 0 (0-9 % Control)

Row | Compound | Aphid (% control ranking) (Aphis fabae) | Fly (% control ranking) (Musca Domestica) | Rust (percentage disease control ranking) [1]
18 | Cc1ccc(N2CC(C)(COCC(C)C)C(OC(=O)N(C)C)=N2)cc1 (stereo not drawn) [Example 27, 3-(N,N-dimethylcarbamoyloxy)-4-(isobutoxymethyl)-4-methyl-1-(4-tolyl)-2-pyrazoline] | 4 (80-100 % Control) | 3 (50-79 % Control) | 0 (0-9 % Control)
19 | CN(C)C(=O)OC1=NN(c2ccc([N+](=O)[O-])cc2)CC1(C)C [Example 21, 4,4-dimethyl-1-(4-nitrophenyl)-3-(N,N-dimethylcarbamoyloxy)-2-pyrazoline] | 4 (80-100 % Control) | – | –
20 | CN(C)C(=O)OC1=NN(c2ccccc2)CC1(C)CO (stereo not drawn) [Example 4, 3-(N,N-dimethylcarbamoyloxy)-4-hydroxymethyl-4-methyl-1-phenyl-2-pyrazoline] | 4 (80-100 % Control) | 0 (0-9 % Control) | 0 (0-9 % Control)
21 | CCCCc1ccc(N2CC(C)(C)C(OC(=O)N(C)C)=N2)cc1 [Example 28, 1-(4-n-butylphenyl)-4,4-dimethyl-3-(N,N-dimethylcarbamoyloxy)-2-pyrazoline] | 4 (80-100 % Control) | 4 (80-100 % Control) | 0 (0-9 % Control)
22 | CN(C)C(=O)OC1=NN(c2ccccc2)CC1 [Example 9, 3-(N,N-dimethylcarbamoyloxy)-1-phenyl-2-pyrazoline] | 4 (80-100 % Control) | 4 (80-100 % Control) | 0 (0-9 % Control)
23 | CN(C)C(=O)OC1=NN(c2ccc(F)cc2)CC1(C)C [Example 36, 4,4-dimethyl-1-(4-fluorophenyl)-3-(N,N-dimethylcarbamoyloxy)-2-pyrazoline] | 3 (50-79 % Control) | 3 (50-79 % Control) | 0 (0-9 % Control)
24 | Cc1ccc(N2CC(C)(CO)C(OC(=O)N3CCOCC3)=N2)cc1 (stereo not drawn) [Example 7, 4-hydroxymethyl-4-methyl-1-(4-tolyl)-3-morpholinocarbonyloxy-2-pyrazoline] | 3 (50-79 % Control) | 0 (0-9 % Control) | 2 (30-49 % Control)
25 | CCN(CC)C(=O)OC1=NN(c2ccccc2)CC1(C)CO (stereo not drawn) [Example 2] | 3 (50-79 % Control) | 0 (0-9 % Control) | 0 (0-9 % Control)
26 | CC(C)N(C(=O)OC1=NN(c2ccccc2)CC1(C)CO)C(C)C (stereo not drawn) [Example 5] | 0 (0-9 % Control) | 0 (0-9 % Control) | 0 (0-9 % Control)
27 | CN(C)C(=O)OC1=NN(Cc2ccccc2)CC1(C)C [Example 17, 1-benzyl-4,4-dimethyl-3-(N,N-dimethylcarbamoyloxy)-2-pyrazoline] | 4 (80-100 % Control) | – | –
28 | CN(C)C(=O)OC1=NN(c2ccc(Cl)cc2)CC1(C)C [Example 39, 1-(4-chlorophenyl)-4,4-dimethyl-3-(N,N-dimethylcarbamoyloxy)-2-pyrazoline] | 4 (80-100 % Control) | 3 (50-79 % Control) | 0 (0-9 % Control)
29 | CC1(CO)CN(c2ccccc2)N=C1OC(=O)N1CCOCC1 (stereo not drawn) [Example 3, 4-hydroxymethyl-4-methyl-3-morpholinocarbonyloxy-1-phenyl-2-pyrazoline] | 4 (80-100 % Control) | 0 (0-9 % Control) | 1 (10-29 % Control)
30 | Cc1ccccc1CN1CC(C)(C)C(OC(=O)N(C)C)=N1 [Example 18, 4,4-dimethyl-1-(2-methylbenzyl)-3-(N,N-dimethylcarbamoyloxy)-2-pyrazoline] | 4 (80-100 % Control) | – | –
31 | CN(C)C(=O)OC1=NN(c2ccc(Cl)c(Cl)c2)CC1(C)C [Example 38, 1-(3,4-dichlorophenyl)-4,4-dimethyl-3-(N,N-dimethylcarbamoyloxy)-2-pyrazoline] | 4 (80-100 % Control) | 2 (30-49 % Control) | 0 (0-9 % Control)
32 | CN(C)C(=O)OC1=NN(Cc2ccc(C(C)(C)C)cc2)CC1(C)C [Example 20, 1-(4-t-butylbenzyl)-4,4-dimethyl-3-(N,N-dimethylcarbamoyloxy)-2-pyrazoline] | 4 (80-100 % Control) | – | –
33 | CN(C)C(=O)OC1=NN(c2ccc(Br)cc2)CC1(C)C [Example 24, 1-(4-bromophenyl)-4,4-dimethyl-3-(N,N-dimethylcarbamoyloxy)-2-pyrazoline] | 4 (80-100 % Control) | 3 (50-79 % Control) | 2 (30-49 % Control)
